Laboratory results as given in the supplement of paper PMC3334620.
The full ranking holds about 33,000 sequences; the median of “E-score (-0.5 to 0.5)” is about -0.04, and the highest 2% start at about 0.36. The list shows a part of the results.

Target: T1, Hmlalpha2 (UniProt P0CY09)
T1 sequence: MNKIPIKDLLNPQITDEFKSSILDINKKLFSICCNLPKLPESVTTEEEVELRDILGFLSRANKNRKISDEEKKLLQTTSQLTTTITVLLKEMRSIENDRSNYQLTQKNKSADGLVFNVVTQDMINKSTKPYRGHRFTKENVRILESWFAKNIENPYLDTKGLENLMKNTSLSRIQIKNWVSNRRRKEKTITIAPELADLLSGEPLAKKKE
Test: PBM E-score (8-mer binding enrichment) (E-score (-0.5 to 0.5)); higher = stronger / more preferred TF binding; most listed sequences are background and not binding sites
Details: protein concentration: 200 nM; construct: GST-full length
How it was run: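 E-scores (a modified Wilcoxon-Mann-Whitney statistic) were assigned by the Universal PBM Analysis Suite to every ungapped eight-base word pooled with its reverse complement. The input came from universal all-10-mer Agilent arrays made double-stranded by primer extension and probed with GST-tagged yeast transcription factors at about 100-200 nM. Fluorescent anti-GST detected bound protein, and masliner normalised the scans.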

Sequence | PBM E-score
ACAGCATG | 0.168
AATAGCCT | -0.143
GGCGACCA | -0.23
GTAGAACA | 0.169
GGCTGTTA | 0.173
CGTCGTTA | -0.00484
AACTAATT | 0.122
GCTTTCTA | 0.155
CACACAAG | 0.248
CAATGTTA | 0.284
CGGGACAC | -0.119
ACCTCGCC | -0.31
AAAACTGG | -0.124
ACAGCACT | 0.198
CGAAGCAC | -0.0778
TATACATA | 0.445
ATGGTGAC | -0.18
AGGGACTA | -0.237
AATGATGG | 0.0828
CAGAACTC | -0.14
AATTCCCG | 0.159
CAAGAATG | -0.0486
GATAACAC | 0.39
AGGTATCC | 0.0371
ACATACAC | 0.404

Sequence | PBM E-score
GTGCTGCA | -0.163
GGAGGAAA | -0.125
GCGTGCGA | -0.0602
GCTGACGA | -0.0654
CGTGAAAA | 0.0977
CCCGGAGA | -0.219
ATCAGGGC | -0.195
CTTCATCA | -0.0341
CGATAGGC | -0.00026
CACAAGGA | 0.139
ATAAAGCC | -0.233
GTTCGAGA | 0.0922
AATTGCGG | -0.0237
ACTGGGGG | -0.418
CAGTAGAA | -0.0651
AACTTCCT | 0.0594
GCGACGCC | -0.212
CGGGTGAC | -0.107
GCCGTCAC | -0.198
AGAATATG | 0.0641
CTATTCTA | -0.0126
CGTTTACC | 0.0999
GATCCAAC | -0.117
CTTACAAC | 0.301
CTGAGCAG | 0.0103

Sequence | PBM E-score
AACGCCGC | -0.00885
GTAGTAAC | 0.165
CCCTATAG | -0.281
AAGAAGAC | -0.0184
CCCGATCA | -0.194
AACCCACA | 0.0824
CAGAATTC | -0.092
GGACCGAC | -0.241
CACAGTGG | 0.0645
GACCTGGC | -0.267
GATGTGCC | -0.334
GGGATAGA | -0.306
AACATGGA | 0.346
AGTAACGG | -0.105
CGGCCCTC | -0.27
GGGATCAC | -0.195
AGGAGTAT | -0.053
CCGATAGC | -0.327
AGATAGCC | -0.18
ATCTTCTG | -0.0648
CGCAGACC | -0.241
CCCGACGC | -0.281
TACCCATA | -0.076
GCTAGCAC | -0.0845
CCTCCGCA | -0.147

Sequence | PBM E-score
GGGTGTGA | -0.13
CATCCATA | -0.0918
CACAGGAA | 0.0626
GCATTGAC | 0.0683
ACAATCGG | 0.0747
AACACGAC | 0.424
GGTGTTAC | 0.223
ACTTAGCA | 0.0572
CCACCTCA | -0.262
AATCTCAA | -0.00841
GAGCTTCC | -0.135
GCTCCTCC | -0.3
CACCGCAA | -0.0276
ATGCTGGA | -0.0513
AGACAAAA | -0.0151
AAGTGACA | 0.241
GCAGCGGA | -0.0923
GCACTCGC | -0.106
ACTTTTTC | -0.113
CAGCCTCA | -0.201
AAAATAGC | -0.223
AGTAACTG | 0.141
ACGGACAA | 0.0112
AGCAAACT | 0.141
CGTGTTGC | 0.301

Sequence | PBM E-score
CGATCGCG | -0.0248
CCGCTACG | -0.107
CGGTTCTC | -0.0536
ACCTGTTG | 0.123
GAGGCACC | -0.421
CAAGGGGC | -0.229
AAGACGCG | 0.0172
ACACAATG | 0.275
TAATGACA | 0.239
ACATCCGA | 0.0299
CACTTATC | -0.0472
ACTGGTAG | -0.0265
CAATTTAA | 0.211
CTGGGCAA | -0.132
ACGACTTC | 0.0834
ATATTCAC | 0.0166
GGCGTACA | 0.144
CCACGTCC | -0.284
ATAGATAC | 0.0935
TTACTGAA | 0.14
CCGTATGA | 0.00811
GTACACGA | 0.425
AGCAGTCC | -0.283
CGCGCTGA | -0.247
GACATTCA | 0.0904

Sequence | PBM E-score
CTAAGACA | 0.136
GACAAATC | -0.0792
AGGCCCTG | -0.136
CCGGTTTC | -0.166
GAAAAAAA | 0.0886
TCTGCTCA | -0.0593
CAAAAGGG | -0.125
CGCCTTAC | 0.0577
GAAAAGAC | -0.00681
GCGCTGCC | -0.265
GAAATGCA | -0.0871
CAATCGAG | -0.336
CGGTTTTA | -0.0131
ACCATGTC | 0.296
CATTCCCC | -0.14
CCTAAGCA | -0.222
CTGCTATA | -0.125
GCGTGACA | 0.265
CGCTGGAA | -0.202
GGAAGTAA | 0.093
GACATGAC | 0.29
GGTAATTA | 0.25
CCGAATTC | -0.123
ATCACGGG | -0.251
AAGCTCTA | 0.0212

Sequence | PBM E-score
CGACGGCA | -0.134
GAAGCTGA | 0.0281
CACTACGA | 0.1
AGATAACG | 0.114
GGATTAGA | -0.216
GATTTACA | 0.429
AGTTTTTG | 0.131
GCACCGAC | -0.173
ACGTTGCT | 0.183
CATAATGC | 0.015
CACTGTAC | -0.129
GGCAGGAC | -0.262
GCCTCCCA | -0.272
GAACGACA | 0.0971
CTTATTTC | 0.129
ATTACTTA | 0.3
CGTTACCA | 0.104
CCGTACCA | -0.176
AACCCGCG | 0.155
CTAAACAG | -0.128
CCCCGACG | -0.126
CATAGCAC | 0.147
AACATGTG | 0.395
CGGTGACA | 0.05
CTAGACGC | -0.0851

Sequence | PBM E-score
CTAAAGAG | -0.158
AAAAGTGC | -0.139
GAATCATA | 0.0242
CATCACTA | 0.025
GTCATAAC | -0.0123
CATTTAAA | 0.179
CCACCGGG | -0.282
AGGCCAGA | -0.206
CCGGTTTA | 0.0123
CCGCAAGA | -0.263
AGATCATA | 0.195
ACAGAAAA | 0.0867
AATATAGA | 0.187
AAACTCCT | -0.244
AGGTGCAC | -0.159
AAGTTTAT | 0.164
GCATAGCA | -0.0391
GACCTTGC | -0.356
GGGGTCTA | 0.00917
GTATCCCA | -0.0842
ATTCGCAA | 0.0556
AAAGGCAA | 0.0184
CACTACTA | 0.00081
CACCCATG | 0.126
CGAATGAC | 0.185

Sequence | PBM E-score
GTAAAGAA | 0.355
CATTTAAG | -0.0527
AAGAAGGC | -0.243
CGTAGCTC | 0.213
CACTCTAA | -0.0791
GACGCCTC | -0.0494
GGGAATTA | 0.102
ACCGTTAC | 0.0699
GCAGTTAC | 0.211
CATTATAG | 0.0352
GTTACAGA | 0.0217
ATCTCTCG | -0.162
CCCACGCC | -0.189
ATACGAAT | 0.162
TCGATTCA | 0.0507
CCTCATCA | -0.0191
ATGACTTC | -0.0744
ACTTTCCT | -0.269
CGCAAGCC | 0.116
GACGGCAA | -0.119
CATTTGGC | -0.0276
ACGCCTGA | 0.151
GTGACTTA | 0.0596
TATGCGCA | -0.0846
AAGGTAAG | 0.0306

Sequence | PBM E-score
CAATCGCG | -0.178
ACGCGACC | 0.25
GGCAGGGA | -0.256
TCATGGCA | -0.177
TAACCCAA | 0.0356
CGTCGAGC | -0.0453
AGTAAGGA | -0.0302
CCCAATTC | 0.179
CAATAAGC | -0.176
AGTAGTAC | 0.196
ATATGAGC | -0.152
GGCATACC | -0.211
AAGGTTAT | -0.0785
CAAAGCTG | 0.0593
AACCGAGT | -0.138
AACTGTTA | 0.115
CCTGCGTA | 0.304
GGCAAAGA | -0.0294
ACACGTCG | 0.302
AATGGTTC | 0.172
GAGTGGCC | -0.211
AGTGCGTG | 0.0463
ATGAGACA | 0.00947
GACCGAAC | -0.0102
GCATCGCC | -0.156

Sequence | PBM E-score
ACGGGCGG | -0.257
TCAGCAAA | 0.0311
ATTTCCTA | 0.127
AAGTTTCT | -0.0231
ATCCGTCA | -0.126
ACGCCTAT | -0.0198
CAAGCCGG | 0.0428
TCGACTCA | 0.0619
AAGCTTTC | 0.0357
GAGAGCGC | -0.255
CGCGACCG | 0.0378
GCAGTCTA | -0.189
AGTTCGGG | -0.0754
GCATCGTA | -0.0214
ATCTGCAG | 0.093
CGCAGTAA | 0.0542
GAAATTAC | 0.307
GCAGCTAA | -0.129
CTAGCAGC | -0.0946
TAAGTTCA | 0.111
CACTGTTC | -0.0195
CAGCTTGC | -0.0467
GCGAACGC | -0.0151
CCAGATTA | 0.171
ATGTTACA | 0.401

Sequence | PBM E-score
ACCCCTTG | -0.109
ACTAGTTC | 0.14
ATATACAG | 0.131
GGTTAGTA | 0.196
AAAAGTAC | 0.145
ACACGGAA | 0.376
CAGAGCCA | -0.114
ATAGATGA | 0.00827
ATCCTTAC | 0.0596
AGGCTTTA | -0.12
CGGGCAAA | -0.0224
ACCCGTGG | -0.298
ATCGATAA | -0.00464
CAATATGG | -0.174
AACCTACG | 0.142
GTTTTGGA | 0.193
CTCGACAA | 0.124
AGGTACCT | -0.161
GAATGATC | -0.118
ACGTACCG | -0.0107
CGTTCGTA | 0.187
TATGGAGA | -0.109
CCTGAATC | -0.0621
ACCATACA | -0.0188
GCTAAGAA | -0.156

Sequence | PBM E-score
CGTAAGAG | 0.133
GTTGTTAA | 0.359
CTTAGCAC | 0.104
GCTATAAA | 0.0343
GACGAAAA | 0.2
ACTGCTAC | 0.0549
AGTTAGTA | 0.157
CTTAGCCC | -0.163
AGGATCTG | -0.22
AGCCGGCT | -0.336
AGCATCGG | -0.103
CGTTAGCA | 0.162
GGTTTCCA | -0.263
AATCACCA | -0.0277
AACTAAAT | -0.0256
ACAGGCCC | -0.155
CCACTTTC | -0.158
CAGGGACG | 0.0208
CGAATGGC | -0.243
TCGGCCAA | -0.148
GGCCACGA | -0.24
CCCACTGC | -0.354
CAGCCCAA | -0.0907
TCGTGCCA | 0.0485
AGTGGCGG | -0.226

Sequence | PBM E-score
CGAACCGA | 0.0732
TAGCTCCA | -0.0488
CATTCTTC | -0.0566
TACCAAAA | 0.0862
GTAACGAC | -0.0196
CACTAGCA | -0.0208
ATGGGCTG | -0.106
AGATACGA | -0.016
AGAAAAAC | 0.0642
TCGTCACA | 0.0612
CTCTTAGA | -0.077
CCGGTCCC | -0.474
ATTACGAG | 0.342
AGATTATG | 0.00695
AATTAGCC | -0.101
AGCGTGGG | -0.249
CACATGCG | 0.141
CCATCCCC | -0.293
ACATCATA | 0.207
